Test results taken from the antibiotic and cytotoxicity screens of Wong et al. (2023).
The other results are listed elsewhere or left out.

Each molecule was assayed on HSkMC (human skeletal muscle cells) (assay: cytotoxicity call (relative viability < 0.9)). Conditions: 10 µM.
`C[C@@H]1CCCCO[C@H](CN(C)Cc2ccncc2)[C@@H](C)CN([C@H](C)CO)C(=O)c2cc(NC(=O)CCCCCC(=O)Nc3ccccc3N)ccc2O1` was tested, and the cytotoxicity call was “inactive”. `Cc1cc(N)c2ccccc2[n+]1CCCCCCCCCC[n+]1c(C)cc(N)c2ccccc21.[Cl-].[Cl-]` was tested, and the cytotoxicity call was “inactive”. In the case of `COc1cnc(SC)n(C)c1=O`, the cytotoxicity call is reported as “inactive”. With `C[C@@H]1CN([C@@H](C)CO)C(=O)c2cc(C#Cc3cccnc3)cnc2O[C@@H]1CN(C)S(C)(=O)=O` the cytotoxicity call was “inactive”. In the case of `C/C=C/c1ccc2c(c1)O[C@H](CN(C)C(=O)c1ccc3c(c1)OCO3)[C@@H](C)CN([C@@H](C)CO)S2(=O)=O`, the cytotoxicity call is reported as “inactive”. For `COc1ccc(NC(=O)Nc2ccc3c(c2)C(=O)N([C@@H](C)CO)C[C@@H](C)[C@H](CN(C)S(=O)(=O)c2cn(C)cn2)O3)cc1`, the cytotoxicity call was “inactive”. `C[C@H]1CCCCO[C@@H](CN(C)C(=O)NC2CCCCC2)[C@@H](C)CN([C@@H](C)CO)C(=O)c2cc(NC(=O)c3ccccc3)ccc2O1` was tested, and the cytotoxicity call was “inactive”. For `C=CC(C1=CC(=O)C(OC)=CC1=O)c1ccccc1` (centres undefined), the cytotoxicity call was “inactive”. With `Cc1noc(C)c1S(=O)(=O)N(C)C[C@@H]1Oc2ccc(NC(=O)c3ccncc3)cc2CC(=O)N([C@@H](C)CO)C[C@@H]1C` the cytotoxicity call was “inactive”. With `COc1ccc(NC(=O)Nc2ccc3c(c2)C(=O)N([C@H](C)CO)C[C@H](C)[C@H](CN(C)S(=O)(=O)c2ccc(C)cc2)OCCCC[C@@H](C)O3)cc1` the cytotoxicity call was “inactive”. For `Cc1ccccc1-c1ccc2c(c1)O[C@H](CN(C)C(=O)Nc1ccc(C(F)(F)F)cc1)[C@H](C)CN([C@@H](C)CO)S2(=O)=O`, the cytotoxicity call was “inactive”. `Cc1noc(C)c1NC(=O)Nc1cccc2c1O[C@@H](CN(C)C(=O)NC(C)C)[C@H](C)CN([C@@H](C)CO)C2=O` was tested, and the cytotoxicity call was “inactive”. `Oc1ccccc1/N=C/c1ccncc1` was tested, and the cytotoxicity call was “inactive”. In the case of `CCCCN(CCCC)[NH2+][O-]`, the cytotoxicity call is reported as “inactive”. With `CN1C(=O)c2cc(NC(=O)c3cccs3)ccc2OC[C@H]2O[C@H](CC(=O)NCCN3CCCCC3)CC[C@@H]21` the cytotoxicity call was “inactive”. With `COc1ccc(NC(=O)Nc2ccc3c(c2)C(=O)N([C@@H](C)CO)C[C@H](C)[C@@H](CN(C)S(=O)(=O)c2cn(C)cn2)O3)cc1` the cytotoxicity call was “inactive”. In the case of `COc1ccc(S(=O)(=O)N(C)C[C@H]2Oc3cc(C#CC4CC4)ccc3S(=O)(=O)N([C@H](C)CO)C[C@H]2C)cc1`, the cytotoxicity call is reported as “inactive”. For `CC(C)CCC(=O)N1C[C@@H]2c3nc(N4CCOCC4)ncc3CS(=O)(=O)[C@H]2C1`, the cytotoxicity call was “inactive”. For `CN(C)CCCCNC(=O)[C@@H]1C[C@@H]2C(=O)NCC(=O)N2[C@@H]1c1cccc(OCCO)c1`, the cytotoxicity call was “inactive”. With `CC(=O)OCCc1nc(C(=O)NCc2ccc3c(c2)OCO3)cc2c1[C@@H](CCO)N([S@](=O)C(C)(C)C)C2` the cytotoxicity call was “inactive”. In the case of `Cc1cncc2cccc(S(=O)(=O)N[C@H]3CN[C@H](C(=O)NN)C3)c12`, the cytotoxicity call is reported as “inactive”. With `C[C@H](CO)N1C[C@H](C)[C@H](CN(C)Cc2ccc(Cl)c(Cl)c2)Oc2ccc(NC(=O)Nc3ccc4c(c3)OCO4)cc2CC1=O` the cytotoxicity call was “active”. With `CCc1cn([C@H]2C[C@@H](O)[C@@H](CO)O2)c(=O)[nH]c1=O` the cytotoxicity call was “inactive”. `COC(=O)CCCCC(=O)c1[nH]c(=O)[nH]c1C` was tested, and the cytotoxicity call was “inactive”. For `Cc1ccc(S[C@]2(C(=O)NCCN3CCOCC3)CC(=O)N(Cc3cc(C(F)(F)F)cc(C(F)(F)F)c3)[C@@H]2c2ccc(CO)cc2I)cc1`, the cytotoxicity call was “inactive”. With `CCOC(=O)c1c(C)cc(O)c(C=O)c1O` the cytotoxicity call was “inactive”. In the case of `COc1ccccc1C#Cc1ccc2c(c1)O[C@@H](CN(C)Cc1cccnc1)[C@H](C)CN([C@H](C)CO)S2(=O)=O`, the cytotoxicity call is reported as “active”. With `C[C@@H]1CN([C@H](C)CO)C(=O)c2cc(NC(=O)Nc3cccc4ccccc34)ccc2O[C@H]1CN(C)S(=O)(=O)c1ccc(F)cc1` the cytotoxicity call was “inactive”. For `C[C@H]1CCCCO[C@H](CN(C)C(=O)CCCN(C)C)[C@@H](C)CN([C@@H](C)CO)C(=O)c2cc(NS(C)(=O)=O)ccc2O1`, the cytotoxicity call was “inactive”. For `OC[C@H]1O[C@@](CO)(O[C@H]2O[C@H](CO)[C@@H](O)[C@H](O)[C@H]2O)[C@@H](O)[C@@H]1O`, the cytotoxicity call was “inactive”. In the case of `C[C@H](CO)N1C[C@H](C)[C@@H](CN(C)S(=O)(=O)c2ccc(F)cc2)OCCCC[C@H](C)Oc2ccc(NS(C)(=O)=O)cc2C1=O`, the cytotoxicity call is reported as “inactive”. In the case of `c1c[nH]cn1`, the cytotoxicity call is reported as “inactive”. With `COCCn1cc2c(n1)[C@H](CNC(=O)COC)OCC2` the cytotoxicity call was “inactive”. In the case of `COc1cccc(S(=O)(=O)N(C)C[C@@H]2Oc3ncc(C#CC(C)C)cc3C(=O)N([C@@H](C)CO)C[C@@H]2C)c1`, the cytotoxicity call is reported as “inactive”.
